Drawing on PubChem BioAssay AID488969 (Vanderbilt High Throughput Screening Facility, 2010), this text covers z-score for 31 compounds.

SMILES strings stand for the structures. Whole data set: some 110,000 compounds, median “z-score” near -0.1, cut for the highest 2% near 2. Some of the results follow.

The experiment addresses Metabotropic glutamate receptor 8 (Rattus norvegicus) (UniProt P70579). Description: rat mGluR8 modulators via GIRK flux, primary screen, cell-based, thallium flux, HTS (AID 488969). As to conditions: HEK293 rat mGluR8, GIRK (G protein-gated inwardly rectifying potassium channel) thallium flux, FluoZin2; at 10 µM; stronger effect = higher value; submaximal glutamate (EC20) added with thallium.
Sequence of UniProt P70579 (P70579 whole entry, looked up): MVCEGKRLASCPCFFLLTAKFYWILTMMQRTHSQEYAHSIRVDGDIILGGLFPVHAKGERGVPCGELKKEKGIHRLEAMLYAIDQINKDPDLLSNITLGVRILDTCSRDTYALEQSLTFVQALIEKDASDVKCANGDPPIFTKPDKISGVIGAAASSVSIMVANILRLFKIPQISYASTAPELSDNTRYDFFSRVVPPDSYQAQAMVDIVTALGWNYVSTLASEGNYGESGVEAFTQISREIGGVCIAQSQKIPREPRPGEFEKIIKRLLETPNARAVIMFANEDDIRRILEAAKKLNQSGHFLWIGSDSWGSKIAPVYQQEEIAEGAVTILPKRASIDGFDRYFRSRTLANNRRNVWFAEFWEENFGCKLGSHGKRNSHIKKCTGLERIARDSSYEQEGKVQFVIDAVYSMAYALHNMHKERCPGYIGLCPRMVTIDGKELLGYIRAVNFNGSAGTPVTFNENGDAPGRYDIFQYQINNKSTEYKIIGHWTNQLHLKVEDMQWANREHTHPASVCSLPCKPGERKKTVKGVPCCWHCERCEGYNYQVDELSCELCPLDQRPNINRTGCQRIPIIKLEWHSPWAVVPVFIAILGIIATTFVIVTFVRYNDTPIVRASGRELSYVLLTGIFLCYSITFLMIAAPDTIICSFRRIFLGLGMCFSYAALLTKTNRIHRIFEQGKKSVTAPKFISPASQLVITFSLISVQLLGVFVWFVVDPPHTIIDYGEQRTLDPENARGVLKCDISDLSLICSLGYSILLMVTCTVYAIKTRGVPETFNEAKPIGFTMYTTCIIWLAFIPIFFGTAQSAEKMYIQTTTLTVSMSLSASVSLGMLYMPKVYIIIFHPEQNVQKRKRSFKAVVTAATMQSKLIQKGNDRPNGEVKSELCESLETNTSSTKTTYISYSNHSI
Consider `CCOC(=O)C1C(c2cccc(Cl)c2Cl)NC(=O)NC1(O)C(F)(F)F` (stereo unspecified), for which the z-score is -0.0385.
As for `CC(C)CSc1nnc2c(n1)[nH]c1ccccc12`, the figure is -1.18; as for `C=C(C)COc1ccc(-c2n[nH]c(C)c2-c2ccccc2OC)c(O)c1`, 1.53.
`Cc1ccc2[nH]c(=O)c(CN(CCO)Cc3nnnn3CCc3ccccc3)cc2c1` showed a z-score of 0.327.
As for `CCOC(CNC(=O)c1cccn2c(=O)c3cc(Cl)ccc3nc12)OCC`, the figure is -0.11; as for `Cn1cccc1CC(=O)NNC(=O)Nc1ccc(F)cc1`, -0.0202; as for `CC(=O)N(C)c1ccc(NC(=O)c2ccccc2C(=O)O)cc1`, -0.182.
With `CCOC(=O)CSc1n[nH]c(NC(=O)c2cccc(C(F)(F)F)c2)n1`, the z-score is -0.122.
As for `O=C(Cc1ccccn1)Nc1ccccc1`, the figure is 0.105.
`Cc1ccc(S(=O)(=O)N(CC(=O)N/N=C/c2cccc(C)c2)c2cccc3cccnc23)cc1` returned a z-score of -0.642.
With `Cc1csc(NC(=O)Cc2c[nH]c3ccccc23)n1` the figure was -0.137; with `CSCCC(NC(=O)c1ccccc1)C(=O)NCc1ccco1` (stereo unspecified), 0.405; with `Cc1sc(NC(=O)CN(C)C2CCCCC2)nc1-c1ccc2c(c1)CCN2S(=O)(=O)c1ccccc1`, -0.199.
With `CCCn1nnc(NC(=O)c2cccc(OCC)c2)n1`, the z-score was -0.378.
With `COc1ccccc1NC(=S)N/N=C/c1cccc(C)c1` the figure was 0.651; with `CC(Oc1cccc(Cl)c1)C(=O)Nc1cc(=O)n(C)c(=O)n1C` (stereo unspecified), -0.0453; with `Cc1cc(N2CCOCC2)ccc1/C=C1\NC(=O)N(CC(=O)Nc2ccccc2C)C1=O`, -0.066.
With `O=C(CSc1nc2ccccc2o1)Nc1ccccc1N1CCOCC1` the figure was -0.771; with `COc1cc(/C=N/N2CCN(C3c4ccccc4-c4ccccc43)CC2)cc(OC)c1O`, -0.191; with `COc1ccccc1N1CCN(CCCNC(=O)Nc2ccccc2)CC1`, -0.426.
As for `Cc1nn(S(=O)(=O)c2ccc([N+](=O)[O-])cc2)c(C)c1Sc1ccccc1`, the figure is -0.0239; as for `CCCN1C2CCCC1CC(NC(=O)C1CCCCC1)C2` (stereo unspecified), -0.199; as for `Cc1ccc(O/C=C2\OC(=O)c3ccccc32)cc1`, 0.0779.
In the case of `COc1ccc(Cl)cc1NC(=O)Nc1ccc(Br)cn1`, the z-score was determined as 0.253.
With `CCCCC(=O)Nc1cccc(NC(=O)c2ccc(Br)cc2)c1` the figure was 0.0277; with `Oc1ccc(C=Nc2ccccc2-c2nc3ccccc3[nH]2)c(O)c1`, -0.247.
Regarding `CCOC(=O)c1ccccc1NC(=S)N1CC(C)CC(C)C1` (stereo unspecified), the z-score is -0.159.
On to `CC(O)CNc1nc2c(c(=O)n(C)c(=O)n2C)n1CCc1ccccc1` (stereo unspecified), for which the z-score was -0.23.
As for `CCN1C(=O)OC2(CCCCC2)C1(C)O` (stereo unspecified), the figure is -0.0204.
With `CC1=C(C(=O)Nc2ccccc2C)C(c2ccccc2)NC(=O)N1` (stereo unspecified) the figure was -0.43; with `CCOC(=O)N1CCN(C(=O)CSc2nnc(-c3ccc(C)c(C)c3)o2)CC1`, -0.295.
